The values that follow come from US20100056439A1 (DOMANTIS, published 2010).

For experiment [1], the target named is T1, EGFR expressed on A431 cells (human, UniProt P00533).
T1 construct: whole, on cells; The assay text gives no species; also called epidermal growth factor receptor
The experiment is described as follows: EGFR binding assay of Example 2 (biotinylated EGF to A431 cells); quantity not named in the column's head.

Another experiment concerns the target T2, VEGF-165 (human, UniProt P15692-4 27-191).
T2 construct: The assay text gives no species; also called vascular endothelial growth factor
T2 sequence (looked up): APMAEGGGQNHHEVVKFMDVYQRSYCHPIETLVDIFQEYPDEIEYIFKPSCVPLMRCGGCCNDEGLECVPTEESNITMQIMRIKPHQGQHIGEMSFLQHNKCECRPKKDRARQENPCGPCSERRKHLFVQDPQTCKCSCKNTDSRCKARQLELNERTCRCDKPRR
Put plainly: VEGF receptor 2 binding assay of Example 1 (competition ELISA, VEGF-165 to VEGF R2/Fc); quantity not named in the column's head.

B1: DOM16-39-601 (VK)-LVTVSSGGGGSGGGS-DOM15-10 (VK)-LVTVSSGGGGSGGGS-Fc (Fc fusion, human)
chain: DIQMTQSPSSLSASVGDRVTITCRASQWIGNLLDWYQQKPGKAPKLLIYYASFLQSGVPSRFSGSGYGTDFTLTISSLQPEDFATYYCQQANPVPPTFGQGTLVTVSSGGGGSGGGSDIQMTQSPSSLSASVGDRVTITCRASQWIGPELSWYQQKPGKAPKLLIYHTSILQSGVPSRFSGSGSGTDFTLTISSLQPEDFATYYCQQYMFQPRTFGQGTLVTVSSGGGGSGG[letters of human IgG1 Fc and a few adjoining residues omitted]
notes: domain: -CH2-CH3 of human IgG1
For B1, the “Assay dAb1” value in experiment [1] amounted to 5.7 nM. Also, in the experiment with VEGF-165, the “Assay dAb2” value amounted to 0.2 nM.

B2: DOM15-26-501 (VH)-LVTVSSASTKGPS-DOM16-39-206 (VK)-…-Fc (Fc fusion)
chain: EVQLLESGGGLVQPGGSLRLSCAASGFTFKAYPIMWVRQAPGKGLEWVSEISPSGSYTYYADSVKGRFTISRDNSKNTLYLQMNSLRAEDTAVYYCAKDPRKFDYWGQGTLVTVSSASTKGPSDIQMTQSPSSLSASVGDRVTITCRASQWIGINLDWYQQKPGKAPKLLIYYASFLQSGVPSRFSGSGSGTDFTLTISSLQPEDFATYYCQQANPAPLTFGQGTKVEIKRTVAAP[letters of human IgG1 Fc and a few adjoining residues omitted]
notes: also called TAR15-26-501 fused to DOM16-39-206 and to Fc
In the case of B2, in the experiment with VEGF-165, the “Assay dAb1” value stood at 5.7 nM.

B3: DOM15-10 (VK)-KVEIKRTVAAPS-DOM16-39-601 (VK)-KVEIKRTVAAPS-Fc (Fc fusion, human)
chain: DIQMTQSPSSLSASVGDRVTITCRASQWIGPELSWYQQKPGKAPKLLIYHTSILQSGVPSRFSGSGSGTDFTLTISSLQPEDFATYYCQQYMFQPRTFGQGTKVEIKRTVAAPSDIQMTQSPSSLSASVGDRVTITCRASQWIGNLLDWYQQKPGKAPKLLIYYASFLQSGVPSRFSGSGYGTDFTLTISSLQPEDFATYYCQQANPVPPTFGQGTKVEIKRTVAA[letters of human IgG1 Fc and a few adjoining residues omitted]
notes: domain: -CH2-CH3 of human IgG1; The natural linker overlaps the C-terminus of the Vk dAb entry
B3: the “Assay dAb2” value in experiment [1] was 2.9 nM. The “Assay dAb1” value with VEGF-165 turned out to be 0.2 nM.

B4: DOM16-39-206 (VK)-KVEIKRTVAAPS-DOM15-10 (VK)-KVEIKRTVAAPS-Fc (Fc fusion)
chain: DIQMTQSPSSLPASVGDRVTITCRASQWIGINLDWYQQKPGKAPKLLIYYASFLQSGVPSRFSGSGSGTDFTLTISSLQPEDFATYYCQQANPAPLTFGQGTKVEIKRTVAAPSDIQMTQSPSSLSASVGDRVTITCRASQWIGPELSWYQQKPGKAPKLLIYHTSILQSGVPSRFSGSGSGTDFTLTISSLQPEDFATYYCQQYMFQPRTFGQGTKVEIKRTVAAP[letters of human IgG1 Fc and a few adjoining residues omitted]
notes: also called DOM16-39-206 fused to TAR15-10 and to Fc
With B4, the “Assay dAb1” value in experiment [1] is 3.7 nM. In addition, the “Assay dAb2” value in the experiment with VEGF-165 was 0.88 nM.

B5: DOM16-39-601 (VK)-LVTVSSAST-DOM15-10 (VK)-LVTVSSAST-Fc (Fc fusion, human)
chain: DIQMTQSPSSLSASVGDRVTITCRASQWIGNLLDWYQQKPGKAPKLLIYYASFLQSGVPSRFSGSGYGTDFTLTISSLQPEDFATYYCQQANPVPPTFGQGTLVTVSSASTDIQMTQSPSSLSASVGDRVTITCRASQWIGPELSWYQQKPGKAPKLLIYHTSILQSGVPSRFSGSGSGTDFTLTISSLQPEDFATYYCQQYMFQPRTFGQGTLVTVSSA[letters of human IgG1 Fc and a few adjoining residues omitted]
notes: domain: -CH2-CH3 of human IgG1; The printed linkers include C-terminal residues of a V domain (LVTVSS of VH, KVEIKR of Vk)
In the case of B5, the “Assay dAb1” value in experiment [1] was 0.68 nM. Moreover, in the experiment with VEGF-165, the “Assay dAb2” value was 10.8 nM.

B6: DOM16-39-601 (VK)-KVEIKRTVAAPS-DOM15-10 (VK)-KVEIKRTVAAPS-Fc (Fc fusion, human)
chain: DIQMTQSPSSLSASVGDRVTITCRASQWIGNLLDWYQQKPGKAPKLLIYYASFLQSGVPSRFSGSGYGTDFTLTISSLQPEDFATYYCQQANPVPPTFGQGTKVEIKRTVAAPSDIQMTQSPSSLSASVGDRVTITCRASQWIGPELSWYQQKPGKAPKLLIYHTSILQSGVPSRFSGSGSGTDFTLTISSLQPEDFATYYCQQYMFQPRTFGQGTKVEIKRTVAA[letters of human IgG1 Fc and a few adjoining residues omitted]
notes: domain: -CH2-CH3 of human IgG1; plain joining of the parts may double those residues
B6: the “Assay dAb1” value in experiment [1] amounted to 0.77 nM. For the same molecule, in the experiment with VEGF-165, the “Assay dAb2” value is 2.9 nM.

B7: DOM16-39-206 (VK)-KVEIKRTVAAPS-DOM15-26-501 (VH)-…-Fc (Fc fusion)
chain: DIQMTQSPSSLSASVGDRVTITCRASQWIGINLDWYQQKPGKAPKLLIYYASFLQSGVPSRFSGSGSGTDFTLTISSLQPEDFATYYCQQANPAPLTFGQGTKVEIKRTVAAPSEVQLLESGGGLVQPGGSLRLSCAASGFTFKAYPIMWVRQAPGKGLEWVSEISPSGSYTYYADSVKGRFTISRDNSKNTLYLQMNSLRAEDTAVYYCAKDPRKFDYWGQGTLVTVSSASTKGP[letters of human IgG1 Fc and a few adjoining residues omitted]
notes: also called DOM16-39-206 fused to TAR15-26-501 and to Fc
For B7, in the experiment with VEGF-165, the “Assay dAb2” value came out at 21.3 nM.

B8: DOM15-10 (VK)-LVTVSSAST-DOM16-39-601 (VK)-LVTVSSAST-Fc (Fc fusion, human)
chain: DIQMTQSPSSLSASVGDRVTITCRASQWIGPELSWYQQKPGKAPKLLIYHTSILQSGVPSRFSGSGSGTDFTLTISSLQPEDFATYYCQQYMFQPRTFGQGTLVTVSSASTDIQMTQSPSSLSASVGDRVTITCRASQWIGNLLDWYQQKPGKAPKLLIYYASFLQSGVPSRFSGSGYGTDFTLTISSLQPEDFATYYCQQANPVPPTFGQGTLVTVSSA[letters of human IgG1 Fc and a few adjoining residues omitted]
notes: as for B1
With B8, the “Assay dAb2” value in experiment [1] amounted to 4.2 nM. The “Assay dAb1” value with VEGF-165 was 1.2 nM.

B9: DOM15-10 (VK)-KVEIKRTVAAPS-DOM16-39-206 (VK)-KVEIKRTVAAPS-Fc (Fc fusion)
chain: DIQMTQSPSSLPASVGDRVTITCRASQWIGPELSWYQQKPGKAPKLLIYHTSILQSGVPSRFSGSGSGTDFTLTISSLQPEDFATYYCQQYMFQPRTFGQGTKVEIKRTVAAPSDIQMTQSPSSLSASVGDRVTITCRASQWIGINLDWYQQKPGKAPKLLIYYASFLQSGVPSRFSGSGSGTDFTLTISSLQPEDFATYYCQQANPAPLTFGQGTKVEIKRTVAAP[letters of human IgG1 Fc and a few adjoining residues omitted]
notes: Expressed in HEK 293T cells; also called TAR15-10 fused to DOM16-39-206 and to Fc
Turning to B9, the “Assay dAb2” value in experiment [1] was determined as 23.8 nM.

B10: DOM15-10 (VK)-LVTVSSGGGGSGGGS-DOM16-39-601 (VK)-LVTVSSGGGGSGGGS-Fc (Fc fusion, human)
chain: DIQMTQSPSSLSASVGDRVTITCRASQWIGPELSWYQQKPGKAPKLLIYHTSILQSGVPSRFSGSGSGTDFTLTISSLQPEDFATYYCQQYMFQPRTFGQGTLVTVSSGGGGSGGGSDIQMTQSPSSLSASVGDRVTITCRASQWIGNLLDWYQQKPGKAPKLLIYYASFLQSGVPSRFSGSGYGTDFTLTISSLQPEDFATYYCQQANPVPPTFGQGTLVTVSSGGGGSGG[letters of human IgG1 Fc and a few adjoining residues omitted]
notes: as for B1
With B10, the “Assay dAb2” value in experiment [1] was 3.1 nM. The “Assay dAb1” value with VEGF-165 worked out at 0.8 nM.
